# Measurements reported in PubChem BioAssay (NCATS).
# The inconclusive results got no clear call from the source; some entries with a clear call stand among them for comparison. Potencies of inconclusive entries are doubtful fits and often do not repeat. The source made the active and inactive calls. Calls follow the shape of the dose curve; as a rule, active = well fitted cell-killing curve with a large enough effect; inconclusive = small, poorly fitted or top-dose-only effect; inactive = no such curve, though single readings can be large or run the other way.
# Experiment: qHTS of pediatric cancer cell lines to identify multiple opportunities for drug repurposing: Primary screen for MG 63 (6-TG R) cells (AID 1347105); also: nearly all actives have a fitted effect of over 50% in size
# Conditions: MG 63 (6-TG R) viability, CellTiter-Glo, 48 h; activity change, negative = cytotoxic: at 46 µM (top of the series) unless noted
# Excerpt: Drug repurposing or repositioning has been offered as a strategy for drug development in oncology programs. This approach has special potential for childhood cancers and other rare or orphan diseases, where the expected return on new drug development has been a disincentive to pharmaceuticals. […] In this project we exploit the poly-pharmacology of drugs to discover new indications via phenotypic screening of a panel of 19 well-characterized cell lines derived from solid tumors seen in children and adolescents. The goal is to identify approved drugs with previously unrecognized anticancer properties that has the potential to reveal new mechanisms and biological processes involved in carcinogenesis or drug resistance. We employed a titration-based paradigm (quantitative high-throughput screening or qHTS), where all compounds were tested at multiple concentrations for their effect on cell viability. Concentration-response curves (CRCs) were derived directly from the primary screen, and both potency and efficacy values were used to identify compounds with robust bioactivity profiles. We screened the NIH Chemical Genomics Center (NCGC) Pharmaceutical Collection (NPC) and Mechanism Interrogation Plate (MIPE) small molecule collections of approved and investigational compounds against these cell lines; and measured metabolically active cells after 48 hours of compound treatment as a proxy for cell viability. […] Assay Submitter: Nathalia J. Martinez, National Center for Advancing Translational Sciences, National Institutes of Health, Rockville, MD, USA; email: natalia.martinez@nih.gov Shen, M et al. Quantitative high-throughput phenotypic screening of pediatric cancer cell lines identifies multiple opportunities for drug repurposing. Oncotarget 2017 Dec 19;9(4):4758-4772. PMID 29435139.
# The cells were obtained from University of North Carolina (UNC), Pediatric Preclinical Testing Program (PPT), and Coriell Institute (CI). qHTS cell viability assay: Cells were assayed in growth media at a density of 500-1,000 cells/well. Five microliters of cells were dispensed into 1,536-well, white, solid-bottom, TC-treated plates (Greiner Bio One) using a multidrop dispenser and incubated at 37 degrees C, 5% CO2, under a humidified atmosphere for 5 hours. Twenty-three nanoliters of compounds and controls (neutral control DMSO or positive control bortezomib at final concentration of 2.3 µM) were subsequently transferred by Kalypsys pintool. For primary screens, the MIPE collection was tested at 11-point dilutions (final concentrations range from 0.78 nM to 46 µM) and the NPC collection at 8-point dilutions (final concentrations range from 0.59 nM to 46 µM). Compounds tested in follow-up screens were assayed at 11-point dilutions. Cells were incubated for 48 hours, followed by addition of 3 µL of CellTiter-Glo (Promega). After a 15 min incubation at room temperature, samples were analyzed for luminescence intensity using a ViewLux High-throughput CCD imager equipped with clear filters.
# % is scaled to controls: 0 for no effect and ±100 for the full control effect; potency is read from the fitted curve at half-maximal effect; tags tell the direction and shape of the fitted curve.
Structure (SMILES),"activity change, negative = cytotoxic",Potency
COc1ccc(/C=N/NC(=O)c2ccncc2)cc1OC,inactive: -3.61%,
Nc1ccn([C@@H]2O[C@H](CO)[C@@H](O)C2(F)F)c(=O)n1,,"inconclusive: 21.1 µM [cytotoxic, partial curve, poor fit]"
CCN(CC)CCOc1ccc(C(O)(Cc2ccc(Cl)cc2)c2ccc(C)cc2)cc1 (stereo not given),,"inconclusive: 33.5 µM [cytotoxic, single point]"
COc1ccc(F)c(F)c1C(=O)c1cnc(NC2CCN(S(C)(=O)=O)CC2)nc1N,,"inconclusive: 3.72 µM [cytotoxic, full curve]"
N#Cc1c(C2CCNCC2)cc(-c2c(O)cccc2OCC2CC2)nc1N,,"inconclusive: 14.8 µM [cytotoxic, partial curve]"
COc1cc(-c2ccc(=O)[nH]n2)ccc1OC(F)F,,"inconclusive: 0.841 µM [cytotoxic, full curve, poor fit]"
CN(C)CCCN=c1c2ccccc2n(C)c2[nH]c(=O)n(C)c(=O)c12,,"inconclusive: 18.7 µM [cytotoxic, partial curve]"
CCCCOc1ccc(OCCCN2CCOCC2)cc1,inactive: -6.19%,
O=C(O)CNC(=O)CNC(=O)CNC(=O)CSC(=O)c1ccccc1,inactive: -22.6%,
COc1cc2nccc(Oc3ccc(NC(=O)NC4CC4)c(Cl)c3)c2cc1C(N)=O,,"inconclusive: 0.59 µM [cytotoxic, full curve]"
COc1cc2c(Nc3ccc(Cl)c(Cl)c3F)ncnc2cc1OCC1C[C@@H]2CN(C)C[C@H]2C1,,active: 14.8 µM
CN1CCCCC1CCN1c2ccccc2Sc2ccc(S(C)=O)cc21 (stereo not given),inactive: -19.1%,
COC(=O)C=CC(=O)OC,,active: 0.235 µM
Nc1nc(Cl)nc2c1ncn2[C@H]1C[C@H](O)[C@@H](CO)O1,,active: 29.6 µM
COc1c(C)c2c(c(O)c1C/C=C(\C)CCC(=O)OCCN1CCOCC1)C(=O)OC2,,"inconclusive: 0.266 µM [cytotoxic, full curve, poor fit]"
C[C@@H](O[C@H]1OCCN(Cc2n[nH]c(=O)[nH]2)[C@H]1c1ccc(F)cc1)c1cc(C(F)(F)F)cc(C(F)(F)F)c1,,"inconclusive: 16.8 µM [cytotoxic, single point]"
O=C(O)c1cc(-c2ccccc2)nc2ccccc12,,"inconclusive: 0.618 µM [cytotoxic, full curve, poor fit]"
C=CC(=O)N1CCC[C@@H](n2nc(-c3ccc(Oc4ccccc4)cc3)c3c(N)ncnc32)C1,,active: 23.5 µM
NC/C=C/C(=O)O,inactive: 2.73%,
CCCCCCCCCCCC[N+](C)(C)Cc1ccccc1,,"inconclusive: 26.6 µM [cytotoxic, single point]"

Structure (SMILES),"activity change, negative = cytotoxic",Potency
Cc1cc(C(C#N)c2ccc(Cl)cc2)c(Cl)cc1NC(=O)c1cc(I)cc(I)c1O (stereo not given),,"inconclusive: 26.6 µM [cytotoxic, partial curve, poor fit]"
O=C1NC(=O)[C@@H](c2cn3c4c(cccc24)CCC3)[C@H]1c1c[nH]c2ccccc12,,"inconclusive: 0.235 µM [cytotoxic, full curve]"
NC(Cc1ccc(Cl)cc1)C(=O)O (stereo not given),inactive: 9.57% [at 0.597 µM],
CC(=O)Nc1ccn(C2COC(COC(=O)c3ccccc3)O2)c(=O)n1 (stereo not given),,"inconclusive: 5.31 µM [cytotoxic, partial curve]"
CC(=O)Nc1sc2c(c1-c1nc3ccccc3s1)CNC2,inactive: -16.5%,
CC(=O)NC(C)c1ccc(Oc2ccc(OC(C)C)cc2)cc1 (stereo not given),,"inconclusive: 37.2 µM [cytotoxic, single point]"
CC(C)=CCNc1ncnc2c1ncn2[C@@H]1O[C@H](CO)[C@@H](O)[C@H]1O,,"inconclusive: 33.5 µM [cytotoxic, single point]"
CN1CCN(C2=Nc3cc(F)ccc3Cc3ccccc32)CC1,inconclusive: -34% [cytotoxic],
O=C(CCCN1CCN(c2ccccn2)CC1)c1ccc(F)cc1,inactive: -20.4%,
CCNC(=O)Nc1ccc(-c2nc3c(c(N4CCOC[C@H]4C)n2)CCN(C2COC2)C3)cc1,,active: 0.743 µM
CCS(=O)(=O)N1CC(CC#N)(n2cc(-c3ncnc4[nH]ccc34)cn2)C1,,"inconclusive: 18.7 µM [cytotoxic, partial curve]"
O=C(Nc1ccc(Oc2ccc(Cl)cc2)c(Cl)c1)c1cc(I)cc(I)c1O,,"inconclusive: 33.5 µM [cytotoxic, single point]"
CC(=O)Nc1c(I)cc(I)c(C(=O)O)c1I,,"inconclusive: 42.2 µM [cytotoxic, partial curve, poor fit]"
COC1=CC(=O)C[C@@H](C)[C@]12Oc1c(Cl)c(OC)cc(OC)c1C2=O,,"inconclusive: 13.3 µM [cytotoxic, partial curve, poor fit]"
COc1cc(O)c2c(c1)C1OC1C[C@H](O)[C@H](O)C(=O)C=CC[C@H](C)OC2=O (stereo not given in full),,active: 18.7 µM
CNCCCN1c2ccccc2CCc2ccccc21,,"inconclusive: 13.3 µM [cytotoxic, partial curve, poor fit]"
Cc1cncc2cccc(S(=O)(=O)N3CCCN(C(=O)CN)C[C@@H]3C)c12,inactive: -29.2%,
CN(C/C=C/c1ccccc1)Cc1cccc2ccccc12,inconclusive: -34.4% [cytotoxic],
CC(CC1c2ccccc2CCc2ccccc21)CN(C)C (stereo not given),inactive: -10.7%,
NC(=O)c1c(OCc2c(F)cc(Br)cc2F)nsc1NC(=O)NCCCCN1CCCC1,,active: 5.9 µM
